The chains are these.
B1: LINE1-mini (parent)
chain: GGCAGAGCUCAACACAGCGUGGCAAAGUGGCUGUGGCUAGACUGCC

The source gives no read counts; variants with many changes may rest on few reads.

The results in this text go back to the RNAGym collection of RNA variant scans (doi:10.7554/elife.90254).

The data set covers variants of B1. The data set is described as follows: self-cleavage, relative activity (ratio to wild type); higher = more cleavage; in vitro, sequencing; the parent is a self-cleaving ribozyme.
Consider GGCAGAGCUCAACACAGGGGGGCAAAGAUGCUGUGGCUAGACUGCC, for which the self-cleavage stood at 1.24.

GGCAGAGCUCAACACAGGGGGGCAAAGGGGCUGUGGCUAGGCAGCA: the self-cleavage came to 0.01.

As for GGCAGAGCUCAACACAGGCUGGCAAAGUGACUGUGGCUAGACGGCC, the self-cleavage is 0.

With GGCAGAGCUCAACACAGGGUGGCAAGGUGGCUAUGGCUAGACUGCC, the self-cleavage turned out to be 0.

For GGCAGAGCUCAACACAGAGUGUCAAAGUAGCUGUGCCUAGUCUGCC, the self-cleavage amounted to 0.02.

Consider GGCAGAGCUCAACACAGUGUGGCGCAGUGGCUGUGGCUAGACUGCC, for which the self-cleavage was 0.22.

For GGCAGAGCUCAACACAGGGUCCCCAAAUGUAUGUGGCUAAACAGCC, the self-cleavage came to 0.02.

GGCAGAGCUCAACACAGAGGGGCAAAGUGGCUAUGGCUAGACUGCC: the self-cleavage worked out at 0.01.

For GGCAGAGCUCAACACAGAGUGGCAAAGCGGCUGAGGCUAGUCUCCC, the self-cleavage turned out to be 0.01.

In the case of GGCAGAGCUCAACACAGGGUGGCAAGGAGGUUGUGGCGAGACUGCC, the self-cleavage stood at 0.01.

Turning to GGCAGAGCUCAACACAGUGUGGUAAGGUGUCUGUGGCUAGACUGCC, the self-cleavage came out at 0.15.

As for GGCAGAGCUCAACACAGGGUGGCAAAGUGGCUGUGGCUAACCUGCC, the self-cleavage turned out to be 0.04.

As to GGCAGAGCUCAACACAGGGUGGUAACGUGGCUGUGGCUAGACUGCC, the self-cleavage turned out to be 0.83.

On to GGCAGAGCUCAACACAGAGUGGCAAAGGCGCUGUUGCUAGACUGCC, for which the self-cleavage was found to be 0.07.

In the case of GGCAGAGCUCAACACAGUGUGGCGAAGUAGCUGUGGCUAGACUGCC, the self-cleavage was determined as 2.98.

Regarding GGCAGAGCUCAACACAGGGUGGGAAAGUGGCUGUGGCUAGACUUCC, the self-cleavage was found to be 0.03.

With GGCAGAGCUCAACACAGAGUGGCAAAGUGGCUGCGGCUGGACUGCC, the self-cleavage worked out at 0.13.

Consider GGCAGAGCUCAACACAGGGUGGCAAAGUGGUUGUGGGUAUACUGCC, for which the self-cleavage turned out to be 0.01.

For GGCAGAGCUCAACACAGAGUGUCAAAGUGGCCGUGGCUAGACUCCC, the self-cleavage was found to be 0.03.

For GGCAGAGCUCAACACAGUGUGGUAAAGUAGCUGUGGCUAGACUUCC, the self-cleavage was found to be 0.26.

Consider GGCAGAGCUCAACACAGUGUGGAAAAGUGGCUGUCGCUAGACUGCC, for which the self-cleavage worked out at 0.02.

Consider GGCAGAGCUCAACACAGGGUGGCAAAGUGGCUGUGGCGACACUGUC, for which the self-cleavage was determined as 0.01.

For GGCAGAGCUCAACACAGGUUGGCAAAGUGGCUGUGGCUGGACUGCC, the self-cleavage was determined as 0.01.

As for GGCAGAGCUCAACACAGGGUGGCUAAGUGGAUUUGGCUAGACUGCC, the self-cleavage is 0.02.

For the variant GGCAGAGCUCAACACAGAGUGGCAAAGUGGCGGUGGGUAGACUGAC, the self-cleavage was found to be 0.01.

On to GGCAGAGCUCAACACAGAGUGGCAAAGUGGCUGUCGAUAUACUGCC, for which the self-cleavage was determined as 0.09.

With GGCAGAGCUCAACACAGGGUGGCAAAGUGGCGGUGGGUAGGCUGUC, the self-cleavage is 0.03.

Consider GGCAGAGCUCAACACAGUGUGGCACAGUGGCUGUGGCUAGACCGCC, for which the self-cleavage was 0.1.

In the case of GGCAGAGCUCAACACAGGGUGGCAAAGGGGCUGUGGCUAGACUCCC, the self-cleavage was found to be 0.3.

As to GGCAGAGCUCAACACAGUGUGGCAAAGUGGCUGUGGAUAGACUUCC, the self-cleavage came to 0.12.

For GGCAGAGCUCAACACAGAGUGGCAAAGUGGCGAUGGAUAGACAGCC, the self-cleavage worked out at 0.01.

Turning to GGCAGAGCUCAACACAGGGUGGCAAAUUGGCUGAGUCUAGACUGCC, the self-cleavage was 0.03.

Turning to GGCAGAGCUCAACACAGUGUGGAAGAGUGGCUGUGGCUAGACUGCC, the self-cleavage turned out to be 2.35.

With GGCAGAGCUCAACACAGGGAGGCUAAGUGGCUGUGGCUAGACUGCC, the self-cleavage amounted to 0.22.

For GGCAGAGCUCAACACAGGGUGGCAAAGUGGAUGUGGCCAACCUGCC, the self-cleavage worked out at 0.03.

For the variant GGCAGAGCUCAACACAGGGUGGCAUAGUGGCCGUGGCUAGACUGCC, the self-cleavage turned out to be 0.29.

GGCAGAGCUCAACACAGGGUGGCACAGUGGCUGUGGCUAUACUGCC: the self-cleavage came out at 0.09.

For GGCAGAGCUCAACACAGAGUGGCAAAGUGGCUUUGGCUAUACUGCC, the self-cleavage stood at 0.07.

For the variant GGCAGAGCUCAACACAGAGUGGCAAACUAGCUGUGGCUAGACUGCC, the self-cleavage was 0.13.

Turning to GGCAGAGCUCAACACAGGUUGGCAAAGUGGAUGUGGCUAGACUGCA, the self-cleavage was 0.09.

GGCAGAGCUCAACACAGGGUUGCAAAGUGGCUGUGACUAGACUGCA: the self-cleavage amounted to 0.01.

Turning to GGCAGAGCUCAACACAGGGUGGCAGAGUGGCUGCGGCUAGACUGCC, the self-cleavage turned out to be 0.17.

Regarding GGCAGAGCUCAACACAGGGUGGCAAAGUGGCUGUGGGUAGACUUCC, the self-cleavage was 0.09.

In the case of GGCAGAGCUCAACACAGUGUGGCAAAGUGGAUCUGGCUAGACUGCC, the self-cleavage was found to be 0.03.

With GGCAGAGCUCAACACAGAGAGGCAAAGUGGCUGUGGCUAGACUUCC, the self-cleavage was 0.01.

Regarding GGCAGAGCUCAACACAGGGUGGCAAAGUGGCGGUGGCUAGCCUGCC, the self-cleavage was 0.04.

In the case of GGCAGAGCUCAACACAGGGUGACAAAGUGGCUCUGGCUAGACUGCC, the self-cleavage stood at 0.02.

As for GGCAGAGCUCAACACAGGGUGGCACACUGGCUGUGGCUAGACUGCA, the self-cleavage amounted to 0.44.

Consider GGCAGAGCUCAACACAGGAUUGCAAAGUGGCUGUGGCUAGACUGCC, for which the self-cleavage stood at 0.97.

As for GGCAGAGCUCAACACAGUGUGGCAAAGUGGCUGUGGCUCGACAGCC, the self-cleavage came to 0.

Take GGCAGAGCUCAACACAGGGAGGCAAAGUGCCUCUGGCUAGACUGCC: the self-cleavage stood at 0.05.

As for GGCAGAGCUCAACACAGGGUGGCAAAGUGACUGCGGCUAGACUGCC, the self-cleavage came to 0.02.

In the case of GGCAGAGCUCAACACAGGGUGGCACAGUAGCUGUGGCUAGACUGCC, the self-cleavage turned out to be 0.1.

For GGCAGAGCUCAACACAGGGUGGCAAAGCGGCAGUGGCUAGACUGCC, the self-cleavage came out at 0.06.

Take GGCAGAGCUCAACACAGGGUGGCAAAGUGGCUGUGGCUAAACUUCC: the self-cleavage stood at 0.

As for GGCAGAGCUCAACACAGGGAGGCAAAGUGGCUGUGGCUAUACAGCC, the self-cleavage was 0.04.
